Assay results reported in PubChem BioAssay AID504832 (National Center for Advancing Translational Sciences (NCATS), 2011).
Among all 310,000 compounds or so, about 18,000 (5.8%) were called active. The shares of active, inactive and inconclusive entries below differ from those in the screen. Calls follow the shape of the dose curve; as a rule, active = well fitted inhibition curve with a large enough effect; inconclusive = small, poorly fitted or top-dose-only effect, or another doubt; inactive = no such curve, though single readings can be large or run the other way. No potency is given beside an inconclusive call; the fits are too rough.

Assay: Primary qHTS for delayed death inhibitors of the malarial parasite plastid, 48 hour incubation
Conditions: P. falciparum luciferase growth in erythrocytes; series mostly up to 28.7 µM; activity change, negative = inhibition: at the top concentration
Summary of the method: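 A one-generation exposure of luciferase-tagged malaria parasites in RPMI 1640/Albumax erythrocyte culture, 37 C and 5% CO2. Inhibition is inferred from decreased luminescence after adding detection reagent.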
% is scaled to controls: 0 for no effect and ±100 for the full control effect; potency is read from the fitted curve at half-maximal effect; tags tell the direction and shape of the fitted curve.

SMILES	activity change, negative = inhibition	Potency
O=C(Cc1ccc(Br)cc1)NCCCn1ccnc1	inactive: 1.53%	
O=C(c1cccc(S(=O)(=O)NCc2ccccc2)c1)N1CCN(c2cccc(C(F)(F)F)c2)CC1		inconclusive [inhibitor, single point]
Cc1nc2ccccc2c(=O)n1NC(=O)C1CCC(C(C)(C)C)CC1 (stereo not drawn)	inactive: 11.2%	
CCCCOc1ccc(Cc2n[nH]c(=S)n2N)cc1		inconclusive [inhibitor, full curve, poor fit]
O=C1c2ccccc2C(=O)N1n1cccc1	inactive: 8.47%	
Cc1cnc(NC(=O)CSc2nnc(-c3ccccc3)n2Cc2ccccc2)s1		inconclusive [inhibitor, single point]
O=C(Oc1ccc(C(=S)N2CCOCC2)cc1)c1ccccc1	inactive: -6.96%	
COC(=O)c1c(NC(=O)Cc2ccccc2)sc2c1CC(C)(C)NC2(C)C		inconclusive [inhibitor, partial curve, poor fit]
CCOC(=O)CSc1nc(C2CC2)cc(-c2ccc(F)cc2)c1C#N		inconclusive [inhibitor, partial curve, poor fit]
COc1ccc(CNC(=O)C(=O)NCC2CCCO2)cc1 (stereo not drawn)	inactive: 4.17%	
CCc1nnc(NC(=O)Cc2ccc(OCc3c(C)noc3C)cc2)s1		inconclusive [inhibitor, partial curve]
O=C(O)CN1C(=O)/C(=C/c2ccccc2Cl)Oc2ccccc21	inactive: 4.33%	
COc1ccc2cc(CN(CCCN3CCOCC3)Cc3nnnn3C3CCCCC3)c(=O)[nH]c2c1		inconclusive [inhibitor, single point]
Cn1c2c(c(=O)n(C)c1=O)NC1(N2)C(=O)Nc2ccccc21 (stereo not drawn)		inconclusive [inhibitor, full curve, poor fit]
Cc1cc(/C=C(\C#N)C(=O)O)c(C)n1-c1ccc(Br)cc1		inconclusive [inhibitor, single point]
CCCn1c(SCC(=O)Nc2ccccc2-c2ccccc2)nnc1-c1ccoc1C		inconclusive [inhibitor, partial curve, poor fit]
Cc1onc(-c2ccccc2)c1C(=O)N1CCN(Cc2ccccc2)CC1	inactive: 6.33%	
COc1ccccc1/C=C(/C(=O)OCC(N)=O)c1ccccc1	inactive: 3.41%	
COc1cccc(CN2CCN(C(=O)c3cccc4ccccc34)CC2)c1OC		inconclusive [inhibitor, single point]
Clc1cncc(Cl)c1NNc1c2ccccc2nc2ccccc12		active: 2.94 µM
CCOc1ccc(C(=O)Nc2cccc(-c3nc4ccccc4[nH]3)c2C)cc1[N+](=O)[O-]	inactive: -18.8%	
Cc1cc(C)c(C#N)c(SCCS(=O)(=O)c2ccc(Cl)cc2)n1		inconclusive [inhibitor, partial curve, poor fit]
O=S(=O)(Nc1ccc2c(c1)nc1n2CCN(Cc2ccccc2)C1)c1ccc(F)cc1		active: 11.7 µM
CCN1C(=O)C(CC(=O)Nc2ccc(OC)cc2)N(CCc2ccc(F)cc2)C1=S (stereo not drawn)		inconclusive [inhibitor, partial curve, poor fit]
O=C(COC(=O)c1ccccc1Cl)Nc1nccs1	inactive: 37.2%	

SMILES	activity change, negative = inhibition	Potency
O=C(CCc1c[nH]c2ccccc12)NCCc1ccc2c(c1)OCCO2		inconclusive [inhibitor, single point]
N#C/C(=C\c1cccnc1)C(=O)NC1CCCCC1		active: 10.4 µM
COC(=O)CCCC1=CC2=C(c3ccccc3)C(=O)C(C)(OC(=O)C3CCCC3)C(=O)C2=CN1c1ccccc1 (stereo not drawn)		inconclusive [inhibitor, partial curve, poor fit]
CCOC(=O)Cc1cc(-c2ccc(O)cc2)nc2ccc3ccccc3c12		inconclusive [inhibitor, full curve]
Cc1cc(C)c(OCC(=O)Nc2ccccc2N2CCOCC2)c(C)c1		active: 11.7 µM
CCOC(=O)c1cc(-c2ccc(OC)cc2)nc2c1c(C)nn2CCC(N)=S		inconclusive [inhibitor, single point]
Cc1ccc(C)c(S(=O)(=O)N2CCCC2CNC(=O)C(=O)NCc2ccco2)c1 (stereo not drawn)		inconclusive [inhibitor, single point]
COc1ccccc1N1CCN(Cc2cccc(OC)c2O)CC1		active: 7.38 µM
O=C(Nc1cccc(-c2nc3cccnc3s2)c1)c1cccnc1Cl		inconclusive [inhibitor, single point]
O=C(Nc1ccc(F)cc1)Nc1nnc(Cc2ccccc2F)s1		inconclusive [inhibitor, single point]
Cc1ccc2c(c1)N(C(=O)CCC(=O)N1CCN(c3cccc(C)c3C)CC1)CCO2		inconclusive [inhibitor, partial curve, poor fit]
CC(C(=O)Nc1ccc(S(=O)(=O)N2CCCC2)cc1)N1CCc2ccccc2C1 (stereo not drawn)		active: 11.7 µM
O=S(=O)(Nc1ccc2ccccc2n1)c1ccccc1Cl	inactive: 73.5%	
CSc1ncc(Cl)c(C(=O)Nc2ccccc2[N+](=O)[O-])n1	inactive: 66.1%	
O=C(O)CCCC(=O)Nc1cc([N+](=O)[O-])ccc1O	inactive: 3.06%	
CC(C)NC(=O)N1CCCN(c2nc3ccc(Cl)cc3s2)CC1	inactive: -16.6%	
c1ccc(OCCOCCN2CCN(C(c3ccccc3)c3ccccc3)CC2)cc1		inconclusive [inhibitor, single point]
CC(=O)c1c(C)[nH]c(C(=O)COC(=O)CCCOc2ccccc2)c1C	inactive: 27.1%	
NC(=O)C1CN(C(=O)c2cccc(S(=O)(=O)N3CCc4ccccc43)c2)c2ccccc2O1 (stereo not drawn)		active: 8.28 µM
NC(=O)C1(N2CCCCC2)CCN(c2nc(-c3ccccc3)cs2)CC1		inconclusive [inhibitor, single point]
COc1ccc2[nH]c(C)c(CCN(Cc3cccs3)C(=S)Nc3ccccc3)c2c1		active: 0.828 µM
COc1ccc(OC)c(S(=O)(=O)N2CCC3(CC2)CC(=O)c2ccccc2O3)c1		inconclusive [inhibitor, single point]
Cc1c([N+](=O)[O-])cc(C(=O)Nc2ccc(NC(=O)c3ccco3)cc2)cc1[N+](=O)[O-]		inconclusive [inhibitor, single point]
c1ccc(C2=NC(c3ccccc3)N=C(c3ccccc3)N2)cc1		inconclusive [inhibitor, partial curve]
O=C(Nc1cccnc1)c1ccc(COc2ccccc2Br)o1		inconclusive [inhibitor, single point]

SMILES	activity change, negative = inhibition	Potency
COc1cc(OC)cc(C(=O)N[C@H](C(=O)OCC(=O)Nc2cccnc2Cl)C(C)C)c1	inactive: 5.54%	
Cn1nc(C(=O)Nc2cccc(Cl)c2)cc1C(=O)Nc1cccc(Cl)c1		inconclusive [inhibitor, partial curve, poor fit]
O=C(Nc1cccnc1)c1cc2cc(Br)ccc2o1	inactive: 36.1%	
CC(=O)N(C1=C(N2CCOCC2)C(=O)c2ccccc2C1=O)c1ccc(C(=O)O)cc1		active: 1.04 µM
CCC(=O)c1c(NC(C)C)cc(C)oc1=O		inconclusive [inhibitor, single point]
Cc1ccccc1N1CCN(C(=O)CN2C(=O)c3ccccc3C2=O)CC1	inactive: 28.6%	
CCOC(=O)c1c(-c2ccc(C)cc2)csc1/N=C/N(C)C		inconclusive [inhibitor, partial curve, poor fit]
CC1(C)C2CCC(C2)C1(C)N=C1OC(CCl)CS1 (stereo not drawn)		inconclusive [inhibitor, full curve, poor fit]
COc1ccc(-c2csc3nc(C)nc(N4CCN(C(C)=O)CC4)c23)cc1OC		active: 4.15 µM
Cc1ccc(/C=C/C(=O)NCc2ccco2)o1	inactive: -6.58%	
COc1cc(NC(=S)N2c3ccccc3CC2C)cc(OC)c1 (stereo not drawn)		inconclusive [inhibitor, single point]
Cc1cccc(NS(=O)(=O)c2cccc(C(=O)NCC3(N4CCCCC4)CCCCC3)c2)c1		active: 6.57 µM
COc1cccc2c1OC[C@@H](CO)[C@H]2N(C)C(=O)Nc1ccccc1		inconclusive [inhibitor, single point]
CN(Cc1ccccc1)C(=O)c1ccccc1NC(=O)C1=CSCCO1	inactive: -1.35%	
COc1ccc(-c2sc3ccc(N4CCOCC4)cc3c2-c2ccc(OC)c(F)c2)cc1		active: 14.7 µM
CCn1c(C)nc2cc(C(=O)N/N=C/c3cccc(O)c3O)ccc21		active: 10.4 µM
Cc1nc2c(-c3ccccc3)c(C)nn2c(C)c1CCC(=O)O	inactive: -9.46%	
CCCCNC1C(CC)C(CCC)C(C#N)(C#N)C1(C#N)C#N (stereo not drawn)		active: 11.7 µM
Cc1cccc(OC(C)C(=O)Nc2cc(S(=O)(=O)N3CCCCC3)ccc2C)c1 (stereo not drawn)		active: 9.28 µM
CCOCCCNC(=O)C1CCN(S(=O)(=O)N(CC(C)C)CC(C)C)CC1		inconclusive [inhibitor, partial curve, poor fit]
N#Cc1ccc(C2=CC(=O)C[C@H](c3ccc(F)cc3)C2)cc1		inconclusive [inhibitor, partial curve, poor fit]
COc1ccc(CN2CN(S(=O)(=O)c3ccccc3)c3nc4ccccc4nc32)cc1		inconclusive [inhibitor, single point]
CC(C)COc1cccc(C(=O)N2CCN(C(=O)c3ccco3)CC2)c1		inconclusive [inhibitor, single point]
